Test results published in the supplement of paper PMC10126150.
Sequences with one replicate were seen in a single cluster, so their values are uncertain.

System: ATP
Experiment: switch fluorescence ratio, 500 uM ATP over buffer (Cy3 cluster intensity, sum of 5 cycles each) (fold (ratio)); higher = stronger signal-on switching upon ATP binding; sequences stand for … in TCGTCGGCAGCGTCAGATGTGTATAAGAGACAGTTTTTTTTTTTTTTTTTTTTTTTTT…TC
Details: aptamer strand: ATP DNA aptamer (quencher-CACCTGGGGGAGTATTGCGGAGGAAGG + anchor), 100 nM annealed; ATP concentration: 500 uM; one replicate
In short: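 Five buffer/ATP imaging cycles were run on Cy3-labelled switching-strand clusters on a modified Illumina MiSeq flow-cell, with NaOH stripping and re-annealing between cycles. In each cycle, clusters annealed to 100 nM quencher-labelled ATP aptamer were imaged in selection buffer, then after 15 min with 500 uM ATP at 22 °C. Per cluster, the fluorescence ratio is summed target-cycle over summed buffer-cycle Cy3 intensity, averaged per switch-domain sequence. Only clusters within 100-1000 RFU were kept.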
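Note: ATP exposure 15 min at 22 °C before imaging.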

Sequence	switch fluorescence ratio
AAGGTATTTA	0.969
CTCCAGTGAA	1.27
TGTGTCTAAC	1.06
TTGCTAAT	0.992
AGCGTCAACC	1.06
TGAAAAGAGT	0.971
CATTGGGCAG	0.974
GAAATAGACC	1
TTCAAAAATT	0.999
CTAGAAACCA	0.998
CAGTTACAAA	1.04
TCGAGGCTCT	1.06
CTGTAAGCCT	1.09
CCCAGTATCG	0.975
AGGTAATTGC	1.02
CCTGTATCAG	0.998
ACCTCGAAGT	1.04
TTCGTGTTCG	1.04
TGACCACCCT	1.17
ACCCTTGCGA	1.29
CTCTTTCTAA	0.995
ATTGCAAGAA	1.03
CCGAGACCTC	1.15
CTTATCGGGC	0.929
CTATCATTCG	0.963
ACGGAGTCTG	0.986

Sequence	switch fluorescence ratio
CGACCCAGAA	1.04
TTGGGAGGTC	1.02
TTCTGGCTCT	1.01
GGGTAAGCCA	0.982
CTCAATTAA	1
GACTACCTA	1.13
GAGTGGCCTT	0.998
CTAACTGCGG	0.994
TGGTCGCAA	2.72
TAACATGTGT	0.99
CTGTGTAATT	1.18
TTGATTTGGC	1
TGACCACTA	1.03
GCACGCTGCA	1.08
AGAGTCCGCC	1.19
CATGCGTAGG	0.984
CCAACTATAA	1.07
GAATCGAAAG	1.04
ACCGGATTTA	0.991
AATGTGCGCC	1.01
TAAGGTGTAT	1.07
TCAATTTGCC	1.02
TCGTTGGCTG	0.961
CTAACCCTTT	1.03
AGTGGTTGC	0.972
TGAGCAGTCG	0.966

Sequence	switch fluorescence ratio
CGGGCATAAC	2.87
GCAGATCCTT	0.96
ACAGACTACA	1.34
TTAACGTCAA	1.24
ATTGGGTGCC	1.03
TATATCGACT	0.984
GGCAGGAGTA	1.05
TGTATCGATG	0.991
TCAAGAGTTT	0.996
TTCAACAGAC	1.03
TGCGGCTACT	1.03
ACGCGACTAG	1.05
ATTCCTCAG	1.31
TTCAAGTAG	1.02
AGGACCGAGC	1.08
AGCCTGTCAG	1.01
CCTCAGATGT	1.32
CTTGTGAAGT	0.999
CGAGTACATG	0.939
CTCATGTGTG	1.02
CGTTCGGGTG	1
TCCTTTCTAA	0.996
TTGATATTGG	0.966
ATAGGGGTAT	0.977
TTGCTAGGAG	0.937
ATGAAGCCTC	1.06

Sequence	switch fluorescence ratio
TTGTACGCTG	1.01
GCACATCCGC	1.66
AACAACCTGA	1.45
GGCGGTTGAG	0.961
ACGTTAAATT	1.13
GTGAAGGTCA	1.02
CACTTAATGT	1.03
TAAGTGGCAA	1.04
GGTAACGAAC	1.32
TGTAAGGAAG	1
TTGATGTACC	1.06
TCCATGGGGA	1.03
CGGAATCGGT	0.966
TTTAGGCGTA	1.03
TATGAGGG	1.02
GTCTGTAGTG	0.968
CGAAGTCGAG	1.03
CGGCACGCAC	1.77
GCGCAGCCTA	1
CGGGTGTGG	0.983
TCCATGAGAG	0.958
TGATTTGAAA	0.999
TGCGATCTTT	1
CGCAGTTTAG	1.14
GACGCTGAGT	1.09
AGTCAGCTTA	1.04

Sequence	switch fluorescence ratio
TAGTATGATA	0.999
AACGACGCTG	1.39
CATTTCGAG	0.98
ACTCCTTGCA	1.7
ATATATAAAA	1.02
GCACTAAGG	1.08
GTAGATGGGC	1.02
TTAAGCACTG	1.13
TGTGCCCGCT	0.984
GGTCAATTGC	1.12
TGGGTCAACA	0.98
ACTAGAAAAT	1.01
TCCCGTTTCT	1.08
AGTGATTTTC	1.01
AAGGCCCGTG	1.02
AGGTTTGGCC	0.999
AGCAGCATCC	1.35
TATTCAAAGG	1.01
TGGAAGCCTA	1.09
TCGTAACGTC	0.937
TATGCATGGT	0.961
GCAGGTCAAA	0.991
AAGTTACCGT	1.08
TTGTTTTAA	0.923
TCGATTGGAA	1.02
GAGCTAATCA	0.954

Sequence	switch fluorescence ratio
ATTCTAGGGC	0.989
ATCCAAGGTT	1.04
GTTAAGACCA	1.03
GGTTCGCCAC	0.976
CATTTTCGGG	0.982
GATCGATTCA	1.05
TCTTTATT	0.994
AGAGCTAGT	1.01
ACTTGAGAAC	1.01
CTGACGGTG	1.05
GTGTTCTAAT	0.953
GTCTTAATTG	1.04
GTGTGCAATA	1.25
AACATTATAC	1.11
AGGTCTAGTG	0.982
GATGTTCCTG	1.05
GTCGAAATGG	1.14
AGAGCGAGGG	0.953
GGGCGGGTTA	1.04
TTAAGAAATG	1.36
CTCGCTATAT	3.22
CGAACTTAG	0.935
AAGCGTGAGC	0.925
ACGGAACGGT	1.01
TCAGGGCGCT	1.04
AAGGATGCGC	1.05

Sequence	switch fluorescence ratio
GTTCAACCGA	1.11
TGTAGTCGCC	0.978
GTCAGTTCAG	1.02
AATGGTCCGT	0.963
AATCCACGTG	1.04
ACCTTCTAGT	1.05
GGCGAAGGGA	1.01
GGTCGGATAA	1.02
CGTTGAAGGG	1.03
GTCTTGGGGT	0.977
AAAAAAGCCT	1.02
TGTCATCC	1.04
GACATAAGTA	1
AAGGATTGCC	1.01
AAGCCGGCCC	0.996
GTAACGCTAT	1.17
CCCGGAAAGT	1.07
GGGTGAAGCT	1.03
TGCTCCATCT	1.03
TTTGTCCTC	1.01
TGTGGTACAA	1.01
CTCTGTCTGT	1.15
GACCGTGGCT	0.994
AGCTTCGGGA	0.985
GACATAAACT	1.01
GCAATGGGCG	1.02

Sequence	switch fluorescence ratio
GCATGTTTGG	1.01
ACGAACAGAG	1.3
TAACGAAGAG	1.08
CCGAGGGTAG	1.25
TTGGTATTAA	0.97
GCGTAAGCGT	1.02
CCCTGGTCAA	1.09
AAATTGAAAG	1.08
ACAAATTTGG	0.994
CAGATTACCT	1.15
ATATAGACTT	1.01
TCAGTACTCG	1.07
AATCACTGCT	1.19
CGCAGACGGC	1.08
AGACATGCC	1.07
AGCGCGATT	1.02
TACCCATTCG	1.01
TGACAGTTTG	0.987
AATAATGTT	1.03
